From PubChem BioAssay AID686979 (National Center for Advancing Translational Sciences (NCATS), 2013)
Values joined by “and” are separate entries in the source; they are usually repeats but may differ in a detail not shown here. Equal values may be shown once. Among all 420,000 compounds or so, about 50,000 (12%) were called active. The shares of active, inactive and inconclusive entries below differ from those in the screen. Calls come from the whole dose curve; as a rule, active = well fitted inhibition curve with a large enough effect; inconclusive = small, poorly fitted or top-dose-only effect; inactive = flat fitted curve, though single readings scatter. Potencies of inconclusive entries are doubtful fits and often do not repeat.

experiment: qHTS for Inhibitors of human tyrosyl-DNA phosphodiesterase 1 (TDP1): qHTS in cells in presence of CPT; conditions: chicken DT40 Tdp1-/-;hTDP1 cells + 20 nM CPT, ATP luminescence, 48 h; activity change, negative = growth inhibition: at 46.2 µM (top of the series) unless noted; note: nearly all actives have a fitted effect of over 55% in size
How it was run: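 Cell growth measured by CellTiter-Glo luminescence after a minimum 48 h, 37 C compound exposure with 20 nM CPT in Tdp1-knockout DT40 cells stably expressing hTDP1, seeded 400/well; qHTS titration format.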
% is set by controls: 0 for no effect and ±100 for the full control effect; potency is the fitted concentration of half-maximal effect; tags give direction and shape of the fitted curve.

SMILES	activity change, negative = growth inhibition	Potency
COc1nc(NCc2ccco2)nc(NC2CCCCC2)n1	inconclusive: -34.1% [inhibitor]	–
COC(=O)c1ccccc1N=NNc1ccc([N+](=O)[O-])cc1	–	inconclusive: 29.1 µM [inhibitor, single point]
O=C(NNC(=S)Nc1ccc(Cl)cc1Cl)c1cccnc1	inactive: 6.51%	–
Cc1noc(C)c1-c1nccc(NC2CC2)n1	inactive: 6.63%	–
CC(C)(O)C#Cc1ccc(C(=O)N2CCN(c3ccc([N+](=O)[O-])cc3)CC2)cc1	–	inconclusive: 29.1 µM [inhibitor, single point]
CC(C)(C)CC(=O)N1CCC(c2nc3c(nnn3Cc3c(F)cccc3Cl)c(=O)[nH]2)CC1	–	active: 16.4 µM
COc1ccc(NC(=O)c2sc3nc4c(cc3c2N)CCCCCC4)c(OC)c1	–	inconclusive: 29.1 µM [inhibitor, single point]
O=C(COC(=O)c1ccccc1OCC(=O)Nc1ccc(Br)cc1)Nc1ccccc1	–	inconclusive: 17.8 µM [inhibitor, single point] and inconclusive: 8.2 µM [inhibitor, partial curve]
Cc1ccc(-c2csc3nnc(SCC(=O)Nc4nsc(-c5ccccc5)n4)n23)cc1	–	active: 20.6 µM
COc1ccccc1Nc1c2c(nc3ccc(NC(=O)c4ccc(OC)c(OC)c4)cc13)CCCC2	–	active: 23.1 µM
C/C(=N\NC(=O)c1ccccc1Cl)c1ccccn1	–	active: 2.91 µM
O=c1cnnc(Nc2ccc(Nc3ccccc3)cc2)[nH]1	inactive: -13.8%	–
O=c1c2ccccc2nc(-c2cccs2)n1-c1cccc2ccccc12	–	inconclusive: 23.1 µM [inhibitor, single point]
CCOC(=O)COc1ccc(/C=C/[N+](=O)[O-])c(OCC(=O)OCC)c1	–	active: 11.6 µM
CCC(C)(C)C1CCc2nc3ccccc3c(C(=O)OC(C)C(=O)Nc3c(C)n(C)n(-c4ccccc4)c3=O)c2C1 (stereo unspecified)	–	active: 23.1 µM
NS(=O)(=O)c1ccc(N2N=C(c3ccccc3)CC2c2ccccc2)cc1 (stereo unspecified)	–	inconclusive: 29.1 µM [inhibitor, single point]
N#Cc1ccc(OCC(=O)Nc2nc(-c3ccccn3)cs2)cc1	–	active: 1.64 µM
COc1cc(NC(=O)C2CC(c3c(F)cccc3Cl)=NO2)cc(OC)c1OC (stereo unspecified)	–	inconclusive: 20.6 µM [inhibitor, single point]
COc1ccc(/C=N/NC(=O)c2nc(-c3ccccc3)n(-c3ccccc3)n2)cc1OC	inconclusive: -56.5% [inhibitor]	–
O=C(Nc1ccc(F)cc1)C(c1cc2ccccc2o1)N1CCN(CC(=O)N2CCCC2)CC1 (stereo unspecified)	–	inconclusive: 6.51 µM [inhibitor, full curve, poor fit]
CNC(=O)/C(C#N)=C/c1c(N(Cc2ccccc2)Cc2ccccc2)nc2ccccn2c1=O	–	active: 16.4 µM
O=C(O)CCCn1cc(NC(=O)c2ccco2)cn1	inactive: -8.69%	–
Cc1ccc(-c2nc(=Nc3c(C)cc(C)cc3C)sn2-c2ccccc2)cc1	–	active: 5.01 µM
CC1C(=O)NN=C1C(=O)N/N=C/c1cccs1 (stereo unspecified)	inactive: -24.3%	–

SMILES	activity change, negative = growth inhibition	Potency
CCN(CC)S(=O)(=O)c1ccc(O)c(NS(=O)(=O)c2ccccc2F)c1	inconclusive: -36.5% [inhibitor]	–
CN1CCC2(CC1)N=C(c1ccc(F)cc1)C(=S)N2C(=O)c1ccc(C(C)(C)C)cc1	–	active: 7.31 µM
CCCc1nc2ccccc2c(=O)n1NC(=O)c1c(O)c2cccc3c2n(c1=O)CCC3	–	inconclusive: 23.1 µM [inhibitor, single point]
CCCCOC(=O)c1ccc(NC(=S)N2CCN(c3ncc4c(=O)c(C(=O)O)cn(CC)c4n3)CC2)cc1	–	inconclusive: 29.1 µM [inhibitor, single point]
CCOC(=O)C1CCN(C(=O)C2CCCN2S(=O)(=O)c2ccc(Cl)cc2)CC1 (stereo unspecified)	–	inconclusive: 23.1 µM [inhibitor, single point]
COc1ccc(-n2cc(CNC3CCOCC3)c(-c3cccc(F)c3)n2)cc1	–	active: 20.6 µM
CN1C2C=C3C(C#N)=C(N)C(C#N)(C#N)[C@@H](c4cccs4)C3C1CC2 (stereo partly specified)	–	inconclusive: 11.6 µM [inhibitor, partial curve]
C[C@@H](C(=O)Nc1ccc(SC(F)F)cc1)N1C(=O)C2CCCCC2C1=O (stereo partly specified)	inactive: -15.1%	–
CCCCC(=O)O[C@H]1CC[C@H]2[C@@H]3CCc4cc(O)ccc4[C@H]3CC[C@]12C	–	inconclusive: 29.1 µM [inhibitor, single point] and inconclusive: 23.1 µM [inhibitor, single point]
Cc1onc(-c2c(F)cccc2Cl)c1C(=O)N=C(N)N1CC(C)OC(C)C1 (stereo unspecified)	inactive: -2.74%	–
Cc1cc(=O)n2c(C(=O)Nc3ccc(Br)cc3)c(C(=O)Nc3ccccc3)sc2n1	inactive: -15.5%	–
CCN(CC(=O)Nc1ccc(OC)c(OC)c1)S(=O)(=O)c1ccc(C)cc1	inconclusive: -31.3% [inhibitor]	–
Cc1ccc2c(c1)N(CC(=O)NC1CCC(C)CC1)C(=O)c1cccnc1O2 (stereo unspecified)	inactive: -10.6%	–
Cc1ccc(N2CC(C(=O)N3CCOCC3)CC2=O)cc1Cl (stereo unspecified)	inactive: -3.28%	–
COCCOC(=O)c1[nH]c2c(c1C)C(=O)CC(c1ccc(OC)c(OC)c1)C2 (stereo unspecified)	–	inconclusive: 14.6 µM [inhibitor, partial curve]
Cc1cc(C)cc(N(CC(=O)N2CCc3ccccc32)S(=O)(=O)c2c(C)noc2C)c1	–	inconclusive: 14.6 µM [inhibitor, single point]
COc1cccc(/C=N/NC(=O)C[n+]2ccccc2)c1OC	inactive: -8.87%	–
O=C(c1cc(-c2ccco2)nc2ccccc12)N1CCCC(C(F)(F)F)C1 (stereo unspecified)	–	inconclusive: 18.4 µM [inhibitor, single point]
Cc1cccc(NC(=O)CNC(=O)COc2ccc(C(=O)c3ccc(F)cc3)cc2)c1C	–	active: 18.4 µM
CCCCOC(=O)c1ccc(OC(=O)c2sc3ncn(Cc4ccccc4Cl)c(=O)c3c2C)cc1	inactive: 0.197%	–
COc1ccc(S(=O)(=O)N2CCN(CC(=O)NCC3(N4CCOCC4)CCCCC3)CC2)cc1	inactive: -11.5%	–
CCCc1nc2c3ccccc3ccn2c1Cc1cccc(F)c1	–	inconclusive: 14.6 µM [inhibitor, partial curve, poor fit]
O=C(c1ccc(F)cc1F)C1CCN(c2ccc([N+](=O)[O-])cn2)CC1	–	inconclusive: 29.1 µM [inhibitor, single point]
CC(C)(C)N(Cc1ccccc1)C(=O)COC(=O)c1ccccc1SCC(=O)N1CCCC1	–	inconclusive: 14.6 µM [inhibitor, partial curve]

SMILES	activity change, negative = growth inhibition	Potency
Cc1ccc(C(C)NC(=O)c2c(-c3ccccc3)noc2C)cc1C (stereo unspecified)	–	inconclusive: 29.1 µM [inhibitor, single point]
Cc1ccc(NC(=O)CSCC(=O)NCc2cccc(C(F)(F)F)c2)cc1	–	inconclusive: 29.1 µM [inhibitor, single point]
O=[N+]([O-])c1ccc(NC(=S)N2CCN(c3ccccn3)CC2)cc1	–	active: 16.4 µM
COc1ccccc1CCNC(=O)c1c(C)nn(CC(C)C)c1Cl	–	inconclusive: 18.4 µM [inhibitor, single point]
Cn1cnc([N+](=O)[O-])c1Sc1nc(N)nc2c1ncn2Cc1ccccc1	–	inconclusive: 18.4 µM [inhibitor, single point]
N#C/C(=C\c1ccccc1Cl)C(=O)Nc1ccccn1	inactive: 13.7%	–
NC(=O)c1cc2ccccc2o/c1=N\NC(=O)c1ccco1	–	inconclusive: 29.1 µM [inhibitor, single point]
CC(C)NC(=O)N(C)C[C@@H]1Oc2ccc(NC(=O)Nc3ccc(C(F)(F)F)cc3)cc2CC(=O)N([C@H](C)CO)C[C@@H]1C	–	inconclusive: 20.6 µM [inhibitor, single point]
Cc1cccc(Nc2nc(-c3sc(C)nc3C)cs2)c1	–	inconclusive: 14.6 µM [inhibitor, partial curve]
O=C1NN(c2ccccc2)C(=O)C1=Cc1ccccc1O	inactive: 14.3%	–
COC(=O)CCC(=O)N1CCCC(CNS(=O)(=O)c2ccc(OC)cc2)C1 (stereo unspecified)	inactive: -4.02%	–
Cc1ccc(Cl)cc1Nc1sc(C(=O)c2ccc(F)cc2)c(N)c1S(C)(=O)=O	–	active: 16.4 µM
COc1ccc(-c2csc(NC(=O)c3cccc(N4C(=O)CCC4=O)c3)n2)cc1OC	–	active: 4.11 µM
CNc1ncc(-c2nnnn2-c2ccccc2)c(-c2ccccc2)n1	–	inconclusive: 29.1 µM [inhibitor, single point]
COc1cc(SC)ccc1C(=O)N(Cc1ccccc1)c1ccccc1	inactive: -29.6%	–
COc1cccc(CNC(=O)Cc2csc3nc(-c4ccccc4)cn23)c1	–	inconclusive: 18.4 µM [inhibitor, single point]
COc1cc(CC2COC(=O)C2(O)Cc2ccc(O)c(OC)c2)ccc1O (stereo unspecified)	–	active: 11.6 µM
Cc1cccc(NC(=O)COc2ccccc2C(=O)NC(C)c2ccccc2)c1 (stereo unspecified)	–	inconclusive: 29.1 µM [inhibitor, single point]
O=C(CSc1nc(=O)n(Cc2ccco2)c2c1CCC2)Nc1cccc(F)c1	–	inconclusive: 7.31 µM [inhibitor, partial curve]
O=C1CSC(=S)N1/N=C/c1ccc(O)c(O)c1O	–	active: 25.9 µM
CN(Cc1ccccc1F)c1cc2c(c3c1ccn3C)C1CCC2C1 (stereo unspecified)	–	inconclusive: 29.1 µM [inhibitor, single point]
O=C(Nc1cccc(F)c1)N1CCCC2(CCN(C(=O)c3ccncc3)CC2)C1	–	active: 0.13 µM
CCn1cc(/C=C(\NC(=O)c2ccccc2F)C(=O)N2CCN(C)CC2)c2ccccc21	–	inconclusive: 20.6 µM [inhibitor, single point]
